Like-named read-outs stand apart in the source and are kept apart here.

The target in assay [1] is T1, hNT5E(1-552)-His (human, UniProt P21589 27-552).
T1 construct: also called NT5E-His; not shown: His tag
T1 sequence (looked up): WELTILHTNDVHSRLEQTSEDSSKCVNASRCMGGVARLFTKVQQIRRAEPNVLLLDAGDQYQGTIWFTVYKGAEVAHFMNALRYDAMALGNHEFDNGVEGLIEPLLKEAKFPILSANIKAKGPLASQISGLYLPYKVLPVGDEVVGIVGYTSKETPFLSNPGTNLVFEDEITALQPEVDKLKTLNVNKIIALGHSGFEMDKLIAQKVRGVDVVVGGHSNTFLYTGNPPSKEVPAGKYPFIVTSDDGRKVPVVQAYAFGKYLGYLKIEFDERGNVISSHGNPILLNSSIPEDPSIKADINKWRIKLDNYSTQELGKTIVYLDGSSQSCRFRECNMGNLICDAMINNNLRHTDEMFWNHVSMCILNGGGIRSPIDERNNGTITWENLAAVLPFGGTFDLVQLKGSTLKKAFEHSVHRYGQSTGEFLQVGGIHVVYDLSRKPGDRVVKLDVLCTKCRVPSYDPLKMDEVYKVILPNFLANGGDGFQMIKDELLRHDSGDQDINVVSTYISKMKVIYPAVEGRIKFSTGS
Put plainly: BLI (Fortebio), antigen on HIS1K sensor, antibody in solution, 37 C, 1:1 fit. On the technique in general: Biolayer interferometry detects binding as a change in optical thickness at a sensor tip.

Assay [2] addresses T1, hNT5E(1-552)-His. In words: ELISA, NT5E-His coated 1 ug/mL. On the technique in general: In an ELISA, binding on a coated surface is turned into a signal by an enzyme label.
Assay [3] concerns the target T2, human LAG3-mG1Fc (human; mouse, UniProt P18627 23-450, limits assumed).
T2 construct: Made by Akeso; also called huLAG3-mG1Fc; HuLAG3-mG1Fc; not shown: mouse IgG1 Fc (mG1Fc); limits not readable
T2 sequence (looked up): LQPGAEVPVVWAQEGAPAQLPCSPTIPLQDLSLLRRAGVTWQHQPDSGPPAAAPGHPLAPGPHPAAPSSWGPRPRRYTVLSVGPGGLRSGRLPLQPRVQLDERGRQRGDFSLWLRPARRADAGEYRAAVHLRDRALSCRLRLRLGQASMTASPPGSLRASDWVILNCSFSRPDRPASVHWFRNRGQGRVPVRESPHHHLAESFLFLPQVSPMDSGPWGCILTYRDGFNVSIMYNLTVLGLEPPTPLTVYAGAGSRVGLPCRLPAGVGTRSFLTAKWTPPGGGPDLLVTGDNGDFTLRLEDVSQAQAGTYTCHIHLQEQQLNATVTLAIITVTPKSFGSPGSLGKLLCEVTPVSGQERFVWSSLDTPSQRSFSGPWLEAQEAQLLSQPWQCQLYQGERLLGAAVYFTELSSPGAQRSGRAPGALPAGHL
In words: ELISA, huLAG3-mG1Fc coated 2 ug/mL.

Assay [4] deals with T2, human LAG3-mG1Fc. In words: BLI (Fortebio), antigen on AMC sensor, antibody in solution, 30 C, 1:1 fit.
Assay [5] has as its target T2, human LAG3-mG1Fc. Put plainly: ELISA, huLAG3-mG1Fc coated 2 ug/mL. This is another data set of the same source.
For assay [6], the target named is T1, hNT5E(1-552)-His. Put plainly: ELISA, NT5E-His coated 1 ug/mL. The source holds these as a separate data set.
The target in assay [7] is T3, CD73 on U87-MG cell membrane surface (UniProt P21589 27-549, limits assumed).
T3 sequence (looked up): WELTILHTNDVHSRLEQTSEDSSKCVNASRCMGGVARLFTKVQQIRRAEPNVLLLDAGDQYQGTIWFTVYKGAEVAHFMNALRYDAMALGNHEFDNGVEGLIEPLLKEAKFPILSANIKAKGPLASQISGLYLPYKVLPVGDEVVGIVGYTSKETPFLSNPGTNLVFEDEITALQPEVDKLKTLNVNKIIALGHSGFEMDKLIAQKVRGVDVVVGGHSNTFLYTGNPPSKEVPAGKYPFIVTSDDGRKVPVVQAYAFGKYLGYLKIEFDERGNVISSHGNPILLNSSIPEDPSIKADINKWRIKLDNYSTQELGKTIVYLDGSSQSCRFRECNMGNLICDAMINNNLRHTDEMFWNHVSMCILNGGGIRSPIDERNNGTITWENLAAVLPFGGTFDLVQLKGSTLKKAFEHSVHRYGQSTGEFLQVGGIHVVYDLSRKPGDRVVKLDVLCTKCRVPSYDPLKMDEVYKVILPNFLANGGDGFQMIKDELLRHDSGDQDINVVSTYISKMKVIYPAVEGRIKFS
Put plainly: cell-based or functional assay.

B1: LA5EV1(hG1TM) (bispecific antibody, human IgG1, kappa)
heavy: QVQLQQWGAGLLKPSETLSLTCAVYGGSISDYYWNWIRQPPGKGLEWIGEINYRGTTNSNPSLKSRVTLSLDTSKNQFSLKLRSVTAADTAVYYCAFGYSDYEYDWFDPWGQGTLVTVSSASTKGPSVFPLAPSSKSTSGGTAALGCLVKDYFPEPVTVSWNSGALTSGVHTFPAVLQSSGLYSLSSVVTVPSSSLGTQTYICNVNHKPSNTKVDKKV[letters of human IgG1 Fc with L234A L235A G237A (EU numbers) omitted]GGGGSGGGGSGGGGSGGGGSQVQLVQSGAEVVKPGASVKVSCKASGYSFTGYTMNWVRQAPGQNLEWIGLINPYNAGTSYNQKFQGKVTLTVDKSTSTAYMELSSLRSEDTAVYYCARSEYRYGGDYFDYWGQGTTLTVSSGGGGSGGGGSGGGGSGGGGSDIVMTQSPSSLAVSVGERVTISCKSSQSLLNSSNQKNYLAWYQQKPGQAPKLLIYFASTRESGVPDRFSGSGSGTDFTLTISSLQAEDVAVYYCQQHYDTPYTFGGGTKLEIKR
light: EIVLTQSPATLSLSPGERATLSCRASQTISSYLAWYQQKPGQAPRLLIYDASNRATGIPARFSGSGSGTDFTLTISSLEPEDFAVYYCQQRSNWPITFGQGTNLEIKRTVAAPSVFIFPPSDEQLKSGTASVVCLLNNFYPREAKVQWKVDNALQSGNSQESVTEQDSKDSTYSLSSTLTLSKADYEKHKVYACEVTHQGLSSPVTKSFNRGEC
notes: IgG-scFv (Morrison format), scFv at the C-terminus of each heavy chain; Tested as the hG1TM form (L234A, L235A, G237A); also called LASEV1; LASEV1(hG1TM)
A word on the Kd: it is the concentration at which binding is half-saturated. A high value points to lower affinity. As usually defined, the koff is the rate constant with which the complex falls apart. Read a high koff as fast dissociation. By kon is commonly meant the second-order rate constant of association. The low end stands for slow association, the high end for fast association. A word on the EC50: it is the concentration giving half of the maximal effect. On to B1, for which, in the assay with hNT5E(1-552)-His [1], the equilibrium dissociation constant (Kd) is 0.793 nM, the “Maximum signal height of analyte (nm)” value was determined as 0.274 nm, the “S E (kdis)” value came to 2.64e-06 s⁻¹ and the koff was 0.00046 s⁻¹. The molecule further registered a kon with hNT5E(1-552)-His [1] of 579000 M⁻¹ s⁻¹. This molecule showed a concentration giving a half-maximal response (EC50) with hNT5E(1-552)-His [2] of 0.036 nM. The molecule also gave a 50% effective concentration (EC50) with human LAG3-mG1Fc [3] of 0.043 nM. Further, in the assay with human LAG3-mG1Fc [4], binding was put at a Kd of 0.125 nM, the “Maximum signal height of analyte (nm)” value came to 0.994 nm, the “S E (kdis)” value turned out to be 2.68e-06 s⁻¹ and the “S E (kon)” value was 3300 M⁻¹ s⁻¹. In the assay with human LAG3-mG1Fc [4], this molecule gave a koff of 7.46e-05 s⁻¹ and an association rate constant (kon) of 598000 M⁻¹ s⁻¹.

B2: NTLAV7(hG1TM) (bispecific antibody, human IgG1, kappa)
heavy: QVQLVQSGAEVVKPGASVKVSCKASGYSFTGYTMNWVRQAPGQNLEWIGLINPYNAGTSYNQKFQGKVTLTVDKSTSTAYMELSSLRSEDTAVYYCARSEYRYGGDYFDYWGQGTTLTVSSASTKGPSVFPLAPSSKSTSGGTAALGCLVKDYFPEPVTVSWNSGALTSGVHTFPAVLQSSGLYSLSSVVTVPSSSLGTQTYICNVNHKPSNTKVDKKV[letters of human IgG1 Fc with L234A L235A G237A (EU numbers) omitted]GGGGSGGGGSGGGGSQVQLQQWGAGLLKPSETLSLTCAVYGGSISDYYWNWIRQPPGKGLEWIGEINYRGTTNSNPSLKSRVTLSLDTSKNQFSLKLRSVTAADTAVYYCAFGYSDYEYDWFDPWGQGTLVTVSSGGGGSGGGGSGGGGSGGGGSEIVLTQSPATLSLSPGERATLSCRASQTISSYLAWYQQKPGQAPRLLIYDASNRATGIPARFSGSGSGTDFTLTISSLEPEDFAVYYCQQRSNWPITFGQGTNLEIK
light: DIVMTQSPSSLAVSVGERVTISCKSSQSLLNSSNQKNYLAWYQQKPGQAPKLLIYFASTRESGVPDRFSGSGSGTDFTLTISSLQAEDVAVYYCQQHYDTPYTFGGGTKLEIKRTVAAPSVFIFPPSDEQLKSGTASVVCLLNNFYPREAKVQWKVDNALQSGNSQESVTEQDSKDSTYSLSSTLTLSKADYEKHKVYACEVTHQGLSSPVTKSFNRGEC
notes: IgG-scFv (Morrison format)
In the assay with human LAG3-mG1Fc [5], B2 came in with an EC50 of 0.158 nM. In the assay with hNT5E(1-552)-His [1], binding was put at a Kd of 0.322 nM, the “Maximum signal height of analyte (nm)” value worked out at 0.227 nm, the “S E (kdis)” value was 3.15e-06 s⁻¹ and the “S E (kon)” value was found to be 1390 M⁻¹ s⁻¹. For the same molecule, in the assay with hNT5E(1-552)-His [1], the koff turned out to be 0.000125 s⁻¹ and the kon stood at 388000 M⁻¹ s⁻¹. Moreover, a half-maximal effect in the assay with hNT5E(1-552)-His [6] (EC50) was put at 0.036 nM. Moreover, in the assay with human LAG3-mG1Fc [4], binding was put at a Kd of 1.04 nM, the “Maximum signal height of analyte (nm)” value was 0.817 nm, the “S E (kdis)” value worked out at 3.11e-06 s⁻¹ and the “S E (kon)” value stood at 1680 M⁻¹ s⁻¹. In the assay with human LAG3-mG1Fc [4], this molecule registered a koff of 0.000309 s⁻¹ and a kon of 298000 M⁻¹ s⁻¹.

B3: NTLAV2(hG1TM) (bispecific antibody, human IgG1, kappa)
heavy: QVQLVQSGAEVVKPGASVKVSCKASGYSFTGYTMNWVRQAPGQNLEWIGLINPYNAGTSYNQKFQGKVTLTVDKSTSTAYMELSSLRSEDTAVYYCARSEYRYGGDYFDYWGQGTTLTVSSASTKGPSVFPLAPSSKSTSGGTAALGCLVKDYFPEPVTVSWNSGALTSGVHTFPAVLQSSGLYSLSSVVTVPSSSLGTQTYICNVNHKPSNTKVDKKV[letters of human IgG1 Fc with L234A L235A G237A (EU numbers) omitted]GGGGSGGGGSGGGGSGGGGSQVQLQQWGAGLLKPSETLSLTCAVYGGSISDYYWNWIRQPPGKCLEWIGEINYRGTTNSNPSLKSRVTLSLDTSKNQFSLKLRSVTAADTAVYYCAFGYSDYEYDWFDPWGQGTLVTVSSGGGGSGGGGSGGGGSGGGGSEIVLTQSPATLSLSPGERATLSCRASQTISSYLAWYQQKPGQAPRLLIYDASNRATGIPARFSGSGSGTDFTLTISSLEPEDFAVYYCQQRSNWPITFGCGTNLEIK
light: B2 light
notes: IgG-scFv (Morrison format)
For the molecule B3, in assay [7], the “EC50 (nM), inhibition of CD73 enzyme activity on U87-MG cells” value came to 0.94 nM and the “Maximum inhibition rate (%) of CD73 enzyme activity on U87-MG cells” value worked out at 98.2%. Besides, in the assay with human LAG3-mG1Fc [5], a half-maximal response (EC50) required 0.173 nM. Besides, in the assay with hNT5E(1-552)-His [1], binding was put at a Kd of 0.408 nM, the “Maximum signal height of analyte (nm)” value was determined as 0.201 nm, the “S E (kdis)” value was found to be 3.22e-06 s⁻¹ and the “S E (kon)” value was found to be 1230 M⁻¹ s⁻¹. In the assay with hNT5E(1-552)-His [1], this molecule displayed a dissociation rate constant (koff) of 0.000137 s⁻¹ and an association rate constant (kon) of 335000 M⁻¹ s⁻¹. The molecule further yielded an EC50 with hNT5E(1-552)-His [6] of 0.037 nM. Further, in the assay with human LAG3-mG1Fc [4], the affinity, expressed as Kd, was 1.23 nM; the “Maximum signal height of analyte (nm)” value is 0.814 nm; the “S E (kdis)” value was found to be 3.08e-06 s⁻¹; the “S E (kon)” value amounted to 2470 M⁻¹ s⁻¹. In the assay with human LAG3-mG1Fc [4], this molecule gave a koff of 0.000535 s⁻¹ and a kon of 436000 M⁻¹ s⁻¹.

For the origin of these results see patent EP4714970A1 (Akeso Biopharma Co., Ltd., dated 2026).
